Test results published in patent publication US20180362645A1 (Amgen, published 2018).

Tests used:
Test in all cases: cell-based or functional assay
cyno PAC1 = cyno PAC1 (cynomolgus)
rat PAC1 = biological target: T1, rat PAC1 (rat, UniProt P32215 20-523)
T1 sequence (looked up): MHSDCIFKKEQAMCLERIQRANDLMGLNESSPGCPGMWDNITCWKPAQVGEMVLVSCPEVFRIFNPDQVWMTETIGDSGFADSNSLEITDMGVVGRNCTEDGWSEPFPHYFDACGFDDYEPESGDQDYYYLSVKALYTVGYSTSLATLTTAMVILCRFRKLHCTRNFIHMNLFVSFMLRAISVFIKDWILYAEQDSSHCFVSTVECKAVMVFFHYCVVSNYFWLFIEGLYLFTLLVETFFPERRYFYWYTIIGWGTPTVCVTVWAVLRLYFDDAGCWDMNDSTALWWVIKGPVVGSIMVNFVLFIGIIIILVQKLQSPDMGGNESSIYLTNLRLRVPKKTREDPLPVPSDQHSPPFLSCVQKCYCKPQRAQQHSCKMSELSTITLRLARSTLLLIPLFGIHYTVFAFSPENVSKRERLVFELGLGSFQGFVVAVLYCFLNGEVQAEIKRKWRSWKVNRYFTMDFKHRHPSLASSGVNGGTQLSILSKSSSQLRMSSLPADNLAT

human VPAC1 = biological target: T2, human VPAC1 (human, UniProt P32241 31-457)
T2 sequence (looked up): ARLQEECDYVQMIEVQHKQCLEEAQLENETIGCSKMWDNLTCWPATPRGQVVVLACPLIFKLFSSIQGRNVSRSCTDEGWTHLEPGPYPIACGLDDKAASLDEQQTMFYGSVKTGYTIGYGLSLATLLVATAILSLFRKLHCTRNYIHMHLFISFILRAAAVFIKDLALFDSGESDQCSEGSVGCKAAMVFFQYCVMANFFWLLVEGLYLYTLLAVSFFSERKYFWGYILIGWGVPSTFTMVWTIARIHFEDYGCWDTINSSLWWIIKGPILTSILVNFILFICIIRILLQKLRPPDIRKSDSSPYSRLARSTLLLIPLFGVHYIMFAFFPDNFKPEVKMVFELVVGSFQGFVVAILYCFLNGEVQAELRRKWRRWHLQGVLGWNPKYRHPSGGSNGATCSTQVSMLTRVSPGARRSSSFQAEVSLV

human VPAC2 = biological target: T3, human VPAC2 (human, UniProt P41587 24-438)
T3 sequence (looked up): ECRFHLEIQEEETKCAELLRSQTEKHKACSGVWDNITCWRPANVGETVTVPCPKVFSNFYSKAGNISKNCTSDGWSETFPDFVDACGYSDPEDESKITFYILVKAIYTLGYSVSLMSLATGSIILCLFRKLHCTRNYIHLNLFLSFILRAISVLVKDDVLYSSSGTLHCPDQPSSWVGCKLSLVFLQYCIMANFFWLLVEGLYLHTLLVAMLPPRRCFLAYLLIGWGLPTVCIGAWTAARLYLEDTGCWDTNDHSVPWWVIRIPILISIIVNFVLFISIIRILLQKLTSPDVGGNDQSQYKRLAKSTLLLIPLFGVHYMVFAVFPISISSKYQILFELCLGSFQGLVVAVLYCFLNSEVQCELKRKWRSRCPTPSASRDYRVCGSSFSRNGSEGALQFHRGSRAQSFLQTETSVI

B1: 01B (antibody, human IgG1, kappa)
heavy: QVQLQQSGPGLVKPSQTLSLTCAISGDSVSSNSATWNWIRQSPSRGLEWLGRTYYRSKWSNHYAVSVKSRITINPDTSKSQFSLQLNSVTPEDTAVYYCARGTWKQLWFLDHWGQGTLVTVSSASTKGPSVFPLAPSSKSTSGGTAALGCLVKDYFPEPVTVSWNSGALTSGVHTFPAVLQSSGLYSLSSVVTVPSSSLGTQTYICNVNHKPSNTKVDKKV[no letters for human IgG1 Fc with changes]
light: DIQMTQSPSSLSASVGDRITITCRASQSISRYLNWYQQKPGKAPKLLIYAASSLQSGIPSRFSGSGSGTDFTLTINSLQPEDFATYFCQQSYSPPFTFGPGTKVDIKRTVAAPSVFIFPPSDEQLKSGTASVVCLLNNFYPREAKVQWKVDNALQSGNSQESVTEQDSKDSTYSLSSTLTLSKADYEKHKVYACEVTHQGLSSPVTKSFNRGEC
cyno PAC1 IC50 (cAMP assay) (cyno PAC1): 0.4 nM
rat PAC1 IC50 (cAMP assay) (rat PAC1): 21.6 nM
hVPAC1 IC50 (cAMP assay) (human VPAC1): > 10 µM
hVPAC2 IC50 (cAMP assay) (human VPAC2): > 10 µM

B2: 39B (antibody, human IgG1, kappa)
heavy: QVQLQESGPGLVKPSQTLSLTCTVSGGSISSGGYYWSWIRQHPGKGLEWIGYIYYSGNTYYNPSLKSRVTISGDTSKNQFSLKLRSVTAADTAVYYCTRGGAARGMDVWGQGTTVTVSSASTKGPSVFPLAPSSKSTSGGTAALGCLVKDYFPEPVTVSWNSGALTSGVHTFPAVLQSSGLYSLSSVVTVPSSSLGTQTYICNVNHKPSNTKVDKKV[no letters for human IgG1 Fc with changes]
light: DIVMTQSPDSLAVSLGERATIHCKSSQSVLYSSNNKNFLTWYQQKPGQPPKLLIYRASTRESGVPDRFSGSGSGTDFTLTISSLQAEDVAVYFCQQYYSAPFTFGPGTRVDIKRTVAAPSVFIFPPSDEQLKSGTASVVCLLNNFYPREAKVQWKVDNALQSGNSQESVTEQDSKDSTYSLSSTLTLSKADYEKHKVYACEVTHQGLSSPVTKSFNRGEC
notes: "B" suffix: aglycosylated IgG1 variant (N297G); also called LC-19 and HC-52
cyno PAC1 IC50 (cAMP assay) (cyno PAC1): 3.9 nM
rat PAC1 IC50 (cAMP assay) (rat PAC1): 22.5 nM
hVPAC1 IC50 (cAMP assay) (human VPAC1): > 10 µM
hVPAC2 IC50 (cAMP assay) (human VPAC2): > 10 µM
